# In PubChem BioAssay AID485281 (National Center for Advancing Translational Sciences (NCATS), 2010):
# Hit rate of the full screen: of about 350,000 compounds, about 260 (0.074%) were called active. Inconclusive means that the source gave no clear call. Such entries were picked first, then a sample of the others. The call rests on the fitted dose curve; in most records, active means well fitted inhibition curve with a large enough effect; inconclusive means small, poorly fitted or top-dose-only effect; inactive means no such curve, though single readings can be large or run the other way. Potencies beside an inconclusive call are fits to weak or partial responses and may not hold up.
# Molecular target: Ferritin light chain (Equus caballus) (UniProt P02791)
# Experiment: qHTS Assay for Identification of Novel General Anesthetics; further: nearly all actives have a fitted effect of over 20% in size
# Conditions: apoferritin/1-aminoanthracene competitive binding, fluorescence; activity change, negative = displacement: at 77.5 µM (top of the series)
# How it was run: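 Read-out: endpoint 1-AMA fluorescence, excitation 380 nm and emission 535 nm, after compounds sit 10 min at room temperature with 10 uM horse-spleen apoferritin in 50% saturated 1-AMA/PBS. Values come from four-parameter Hill fits.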
# On the % scale 0 is the no-effect control and ±100 the full control effect; potency means the concentration at half of the fitted maximal effect; tags describe the fitted curve by direction and shape.
# UniProt P02791, sequence (P02791 whole entry, looked up): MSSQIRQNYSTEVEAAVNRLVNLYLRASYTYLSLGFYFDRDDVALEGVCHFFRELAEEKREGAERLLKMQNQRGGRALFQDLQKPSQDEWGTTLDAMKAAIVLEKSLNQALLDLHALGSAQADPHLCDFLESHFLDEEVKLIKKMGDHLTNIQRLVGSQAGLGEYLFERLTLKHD
Structure (SMILES),Potency,"activity change, negative = displacement"
COc1cccc(NC(=S)NCc2ccccn2)c1,"inconclusive: 39.8 µM [inhibitor, single point]",
CSc1cccc(NC(=O)N2CCCC(CNS(=O)(=O)Cc3ccccc3)C2)c1 (configuration not stated),"inconclusive: 20 µM [inhibitor, partial curve]",
CCCN1CCN(c2ncc3c(n2)CCN(Cc2ccc(OC)c(OC)c2OC)C3)CC1,,inactive: -7.05%
CC(=O)c1cccc(N(C(=O)Cn2nnc3ccccc32)C(C(=O)NCc2ccccc2)c2ccc(F)cc2)c1 (configuration not stated),"inconclusive: 39.8 µM [inhibitor, single point]",
C/C(CC(=O)NC1C2CC3CC(C2)CC1C3)=N\NC(=O)Cc1cccs1 (configuration not stated),"inconclusive: 50.1 µM [inhibitor, single point]",
c1ccc(C2=Nn3c(nnc3-c3ccco3)SC2)cc1,"inconclusive: 31.6 µM [inhibitor, single point]",
C/C(=N\NC(=O)COc1ccccc1)c1ccc(O)cc1,,inactive: -14.9%
CCN(C(=O)CSc1nc2cc(C(=O)OC)ccc2c(=O)n1Cc1ccco1)c1cccc(C)c1,,inactive: -8.68%
CC(=O)c1cccc(NC(=O)COc2ccc(S(=O)(=O)N3CCCCC3)cc2)c1,"inconclusive: 35.5 µM [inhibitor, partial curve]",
CCOC(=O)c1c(S(=O)(=O)NCC(=O)Nc2ccc(Cl)c(C(F)(F)F)c2)c(C)n(C)c1C,"inconclusive: 11.2 µM [inhibitor, partial curve]",
Cc1ccc(SCC(=O)OCC(=O)NC2CCCCCC2)cc1,"inconclusive: 28.2 µM [inhibitor, partial curve]",
Fc1ccc(COc2ccc(C(=S)N3CCCC3)cc2)cc1,"inconclusive: 28.2 µM [inhibitor, partial curve]",
CC(=O)c1ccc(OCCOc2ccc([N+](=O)[O-])cc2)cc1,"inconclusive: 31.6 µM [inhibitor, single point]",
Cc1nn(CC(=O)NC(C)c2ccccc2)c(=O)c2ccccc12 (configuration not stated),"inconclusive: 17.8 µM [inhibitor, partial curve]",
CCOC(=O)c1c(NC(=O)C2CCCCC2)sc2c1CCN(C(C)C)C2,"inconclusive: 25.1 µM [inhibitor, partial curve]",
Cc1cccc(CS(=O)(=O)c2ncc(Cl)c(C(=O)Nc3nc4ccc(F)cc4s3)n2)c1,"inconclusive: 35.5 µM [inhibitor, partial curve]",
CC1=CCC2C(=O)N(c3ccc(OC(=O)c4ccco4)cc3)C(=O)C2C1 (configuration not stated),"inconclusive: 17.8 µM [inhibitor, partial curve]",
CC(C)(C)c1csc(NC(=O)c2ccc(Br)o2)n1,"inconclusive: 35.5 µM [inhibitor, single point]",
C/C=C/COC(=O)c1[nH]c2c(c1C)C(=O)CC(c1ccc(N(C)C)cc1)C2 (configuration not stated),"inconclusive: 56.2 µM [inhibitor, single point]",
Cc1cc(C)c(S(=O)(=O)N2CCN(Cc3nc4ccc(C)cc4o3)CC2)c(C)c1,,inactive: 35.3%
Cc1cc(C(=O)NC2CCCc3ccccc32)no1 (configuration not stated),"inconclusive: 31.6 µM [inhibitor, partial curve]",

Structure (SMILES),Potency,"activity change, negative = displacement"
COc1ccccc1-c1cc(C(F)(F)F)nc(NCc2ccco2)n1,"inconclusive: 31.6 µM [inhibitor, partial curve]",
CCOC(=O)c1ccc2c(c1)N(Cc1cccc(C(F)(F)F)c1)C(=O)c1ccccc1S2(=O)=O,"inconclusive: 10 µM [inhibitor, partial curve]",
O=C(COC(=O)CN1C(=O)c2ccccc2C1=O)Nc1ccc(S(=O)(=O)N2CCCC2)cc1,"inconclusive: 28.2 µM [inhibitor, partial curve]",
O=C(NN=C(Cc1ccccc1)Cc1ccccc1)c1ccncc1,"inconclusive: 50.1 µM [inhibitor, single point]",
NNC(=O)/C(=C/c1cccs1)NC(=O)c1ccccc1Cl,"inconclusive: 15.8 µM [inhibitor, partial curve]",
CCCN1C=CC(=CC=C(C#N)C#N)C=C1,,inactive: 3.99%
O/N=C1\CCCCc2ccccc21,"inconclusive: 14.1 µM [inhibitor, partial curve]",
CCOC(=O)CC(=O)CSc1ncnc2c1oc1ccccc12,"inconclusive: 28.2 µM [inhibitor, single point]",
Cc1nn(C(=O)c2cccnc2)c(C)c1Sc1ccc(Br)cc1,"inconclusive: 35.5 µM [inhibitor, single point]",
Cc1ccnc(NC2CCCCC2)c1,"inconclusive: 25.1 µM [inhibitor, partial curve]",
CC(=O)c1cccc(NC(=O)Nc2cnn(Cc3ccc(Cl)cc3Cl)c2)c1,"inconclusive: 22.4 µM [inhibitor, partial curve]",
CCN(CC)S(=O)(=O)c1cccc(-c2n[nH]c(=S)n2/N=C/c2ccc(OC(F)F)cc2)c1,"inconclusive: 25.1 µM [inhibitor, single point]",
O=C(Nc1nnc(-c2ccc3c(c2)CCCC3)o1)c1ccccc1Cl,"inconclusive: 15.8 µM [inhibitor, partial curve]",
C=CCn1cnc2scc(-c3ccc(OC)cc3)c2c1=O,"inconclusive: 39.8 µM [inhibitor, single point]",
O=C(N/N=C/c1ccccc1O)C(=O)N1CCCCCC1,"inconclusive: 39.8 µM [inhibitor, single point]",
Cc1ccccc1-c1nc(CS(=O)(=O)CC(=O)Nc2cccc(C(F)(F)F)c2)c(C)o1,"inconclusive: 5.62 µM [inhibitor, single point]",
O=C(O)CCCCNCc1ccccc1,,inactive: 1.27%
CC(C)c1cc(C(=O)Nc2cccc(C(F)(F)F)c2)no1,"inconclusive: 31.6 µM [inhibitor, partial curve]",
CCOC(=O)c1cnc2ccc(C)cc2c1OCc1cc(F)cc(F)c1,"inconclusive: 22.4 µM [inhibitor, partial curve, poor fit]",
Cc1ccc(S[C@@H](CCN2CC[C@H](C)CCC2=O)c2ccccc2)cc1,,inactive: 61.6%
O=C(CN1CCCCCC1)Nc1ccc(F)c(F)c1F,"inconclusive: 31.6 µM [inhibitor, single point]",
